# Results published in publication PMC4336329 (PLoS ONE, 2015).
# About 2,200 (0.71%) of roughly 310,000 compounds showed an effect of 50% or more. The effect is printed as a negative number. The list shows a part of the results.
# Molecular target: human ether-à-go-go-related gene (hERG) potassium channel (human, UniProt Q12809)
# Experiment: primary screen, population patch clamp on CHO cells stably expressing hERG
# Sequence of human ether-à-go-go-related gene (hERG) potassium channel (Q12809 whole entry, looked up): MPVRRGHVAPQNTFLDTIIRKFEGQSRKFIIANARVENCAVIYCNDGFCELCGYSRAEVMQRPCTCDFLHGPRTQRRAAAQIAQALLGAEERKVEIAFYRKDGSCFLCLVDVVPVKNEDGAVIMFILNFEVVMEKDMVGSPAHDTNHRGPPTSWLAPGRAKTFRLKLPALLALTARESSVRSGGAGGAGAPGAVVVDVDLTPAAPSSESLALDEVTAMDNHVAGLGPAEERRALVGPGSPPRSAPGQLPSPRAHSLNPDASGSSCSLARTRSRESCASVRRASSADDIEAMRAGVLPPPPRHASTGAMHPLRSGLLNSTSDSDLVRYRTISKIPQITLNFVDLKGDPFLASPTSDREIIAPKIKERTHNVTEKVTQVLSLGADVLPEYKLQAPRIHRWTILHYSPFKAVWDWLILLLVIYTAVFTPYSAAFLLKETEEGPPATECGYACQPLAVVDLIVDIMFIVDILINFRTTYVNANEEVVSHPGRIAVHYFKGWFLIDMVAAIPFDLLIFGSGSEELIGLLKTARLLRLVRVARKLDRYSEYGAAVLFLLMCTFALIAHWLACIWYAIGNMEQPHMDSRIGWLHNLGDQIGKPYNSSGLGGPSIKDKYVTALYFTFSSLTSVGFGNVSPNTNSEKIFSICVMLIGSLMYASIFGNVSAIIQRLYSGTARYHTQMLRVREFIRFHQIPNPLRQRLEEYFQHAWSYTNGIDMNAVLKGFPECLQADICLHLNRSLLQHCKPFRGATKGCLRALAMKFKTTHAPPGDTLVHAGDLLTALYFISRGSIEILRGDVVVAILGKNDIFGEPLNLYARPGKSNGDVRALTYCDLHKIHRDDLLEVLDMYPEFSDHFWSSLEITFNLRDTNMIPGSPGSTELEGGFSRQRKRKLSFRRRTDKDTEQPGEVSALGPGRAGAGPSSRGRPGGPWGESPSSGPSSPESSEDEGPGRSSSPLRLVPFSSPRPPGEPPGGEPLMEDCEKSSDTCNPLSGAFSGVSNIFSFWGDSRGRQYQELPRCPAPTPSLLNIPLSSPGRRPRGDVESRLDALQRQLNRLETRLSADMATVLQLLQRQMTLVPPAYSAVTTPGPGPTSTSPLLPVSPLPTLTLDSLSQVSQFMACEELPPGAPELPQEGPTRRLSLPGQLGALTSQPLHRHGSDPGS
row,Compound,"hERG current change (%, negative = inhibition) at 1uM [%]"
1,COc1cc(/C=N/NC(=O)c2cc(C3CC3)[nH]n2)cc(OC)c1OC,11.6
2,COc1cc(NC(=O)c2cccc3c2C(=O)N(C2CCCCC2)C3)cc(OC)c1OC,10.8
3,O=C(Oc1ccc2ccc(=O)oc2c1)c1ccccc1,9.28
4,COc1ccc(NC2=NC(C)(CO)CS2)cc1 (stereo not drawn),16.6
5,O=C(CCC(=O)N1CCOCC1)NCCc1ccc(F)cc1,15
6,Cn1c2ccccc2c(=O)c2ccc(C#Cc3ccc(N)cc3)cc21,19
7,Cc1ccccc1NC(=O)CSc1ccncc1,11
8,O=C1CCN(Cc2ccccc2)CCN1[C@H](CSc1ccccc1)c1ccccc1,2.25
9,Cn1c(N2CCC(C(N)=O)CC2)nc2c1c(=O)n(Cc1ccc(Cl)cc1)c(=O)n2C,-16.4
10,c1ccc(Nc2nc3ccccc3n3cnnc23)cc1,12.6
11,COc1ccc(-c2nnc(SCC(=O)N3CCCC3)o2)c(OC)c1,5.81
12,COc1cccc(/C=C2\SC(=S)N(N3C(=O)CCCC3=O)C2=O)c1,16.8
13,O=C(NCC1CCCO1)NC1(C(F)(F)F)Oc2ccccc2O1 (stereo not drawn),1.46
14,COc1cccc(N2CC(C(=O)OC(C)C(=O)c3ccccc3)CC2=O)c1 (stereo not drawn),5.64
15,CCCCc1ccc(-n2c(Cc3cccs3)n[nH]c2=S)cc1,-0.247
16,COc1cccc(/C=C/C(=O)OCC(=O)NCC2CCCO2)c1OC (stereo not drawn),8.24
17,O=S1(=O)CCOC[C@H](c2ccccc2)N1Cc1ccccc1F,11
18,Cc1cccc(-c2nc3ccccc3c(=O)n2N)c1,17
19,COc1ccccc1NC(=O)CSc1n[nH]c(-c2ccccn2)n1,8.53
20,CCC(=O)N1CCc2cc(S(=O)(=O)NC(Cc3ccccc3)C(=O)Nc3nccs3)ccc21 (stereo not drawn),12.9
21,CCOc1ccc(NC(=O)CSc2nnc(C)n2CC)cc1,13.6
22,CC(C)OCCCNC(=O)C1CCC(=O)N1C1CCCC1 (stereo not drawn),8.02
23,CCOc1cc(Br)c(CC(=O)O)cc1OCC,10.4

row,Compound,"hERG current change (%, negative = inhibition) at 1uM [%]"
1,CC(=O)CC(=O)Nc1ccc2ccccc2c1,7.95
2,Cn1nc(-c2ccc(NCCO)c([N+](=O)[O-])c2)c2ccccc2c1=O,13.6
3,COc1ccc(-n2cc(C(=O)O)c3ccccc3c2=O)cc1,-8.39
4,COc1ccc(-n2c(SC(CN3CCCCC3)CN3CCCC3=O)nc3ccccc3c2=O)cc1.Cl (stereo not drawn),6.87
5,CC1CCN(S(=O)(=O)c2ccc3ncn(CC(=O)N4CCN(C)CC4)c(=O)c3c2)CC1,0.19
6,C(=N\Nc1nc(Nc2ccccc2)nc(Nc2ccccc2)n1)/c1cccnc1,7.3
7,O=C(COC(=O)c1ccccc1[N+](=O)[O-])NC(=O)c1ccccc1,5.76
8,CCOC(=O)CSc1nc(N)nc(C)c1Cl,6.56
9,O=C(CCNC(=O)C1CCN(S(=O)(=O)c2ccccc2)CC1)Nc1ccccc1,10.7
10,CC(=O)O[C@@H]1C[C@H]2C(C)=C[C@H]3OC(=O)[C@@H](C)[C@H]3C[C@H]2[C@]1(C)O,3.48
11,COc1cccc(CNC(=O)C(c2ccc(Cl)cc2)C(C)C)c1 (stereo not drawn),9.32
12,O=C(COC(=O)c1ccccc1Br)Nc1ccccc1F,-7.39
13,CC1CCCCC1NC(=O)CN1C(=O)NC(Cc2ccccc2)(Cc2ccccc2)C1=O (stereo not drawn),-13.2
14,Cc1cc(C)c(S(=O)(=O)N2CCCC2)c(C)c1,9.09
15,COc1ccc(CCNC(=O)C(=O)NCC2CCNCC2)cc1OC,17.5
16,Cc1c(C(=O)N2CCOCC2)c(S(=O)(=O)Nc2ccc(Br)cc2F)c(C)n1C,11.2
17,Cc1ccc(NC(=O)Nc2ncnc3nc[nH]c23)cc1,11.1
18,Cc1cccc(-n2c(N)cc(=O)[nH]c2=S)c1C,1.19
19,COc1nc2c(s1)C(=O)NCCC2,6.32
20,Cc1ccccc1C(=O)c1cccn1CC(=O)NCCCN1CCc2ccccc2C1,-70
21,CSc1ccc(C(c2c(C(=O)O)[nH]c3ccccc23)c2c(C(=O)O)[nH]c3ccccc23)cc1,12.6
22,C=CCNc1nc(-c2cccs2)c(CC(=O)O)s1,-10.7
23,Cc1[nH]c(=O)[nH]c(=O)c1S(=O)(=O)N1CCN(c2cccc(Cl)c2)CC1,5.81

row,Compound,"hERG current change (%, negative = inhibition) at 1uM [%]"
1,Cc1ccc(N2C(=O)C3C4C=CC(CNC(=S)Nc5ccc(Cl)cc5)(O4)C3C2=O)cc1 (stereo not drawn),4.56
2,Cc1[nH]n(C(N)=S)c(=O)c1N=Nc1ccc(Cl)cc1Cl,7.32
3,O=C(COc1ccc(S(=O)(=O)Nc2ccccc2)cc1)NCc1ccncc1,9.53
4,O=[N+]([O-])c1cccc(/C=N/Nc2nc(NCc3ccccc3)nc(N3CCOCC3)n2)c1,14.7
5,COC(=O)C1=C(c2ccc(-c3ccccc3)c(F)c2)C[C@@H]2CC[C@H]1N2C(=O)NCc1cc(C)oc1C(F)(F)F,-10.7
6,CCC1(CC)NC(=O)N(CC(=O)OCC(=O)Nc2sccc2C#N)C1=O,10.1
7,Cc1csc(=O)n1CC(=O)OCC(=O)c1ccc(Br)cc1,-4.33
8,CC(=O)c1cccc(NC(=O)C(C)N(C)CC(=O)Nc2ccc(Cl)cc2)c1 (stereo not drawn),-1.89
9,COc1cc(C2C(N3C(=O)c4ccccc4C3=O)C(=O)N2c2ccc(C)c(C)c2)cc(OC)c1OC (stereo not drawn),-0.347
10,O=C(OCCN1C(=O)c2ccccc2C1=O)c1cc2ccccc2o1,15.7
11,O=C(CSc1nc(C(F)(F)F)cc(=O)[nH]1)Nc1nccs1,13.1
12,COc1ccccc1NC(=O)CN1CCN(CC(=O)Nc2cc(NC(C)=O)ccc2OC)CC1,-3.68
13,Cc1cccc(NC(=O)CSc2nc(C)c(Cc3ccccc3)c(=O)[nH]2)c1,14.5
14,O=C(CN1CCOCC1)Nc1cc([N+](=O)[O-])ccc1Cl,8.24
15,CCOC(=O)C1(CC2CCCCO2)CCN(C(=O)Nc2ccc(SC)cc2)CC1 (stereo not drawn),10.2
16,CCOCCCn1cc(C(=O)c2cc(Br)ccc2O)cc(C#N)c1=O,6.95
17,CCOC(=O)CN1N=C(/C=C/c2ccc(OC)cc2)CCC1=O,15.1
18,Cn1cccc1C(=O)NC(=O)CSc1nc2ccccc2s1,17
19,COc1ccccc1OC(C)C(=O)N1CCN(Cc2ccc3c(c2)OCO3)CC1 (stereo not drawn),13.5
20,CN(Cc1ccccc1)S(=O)(=O)c1nnc(NC(=O)c2ccccc2)s1,21
21,CCOC(=O)C1C(=O)CC(C)(O)C(C(=O)OCC)C1c1ccc(Br)o1 (stereo not drawn),2.52
22,COc1cccc(N2C(=O)C(O)=C(C(C)=O)C2c2ccc(OC)c(OC)c2)c1 (stereo not drawn),11.5
23,Cc1noc(NS(=O)(=O)c2ccc(N/C=C\C(=O)c3ccccc3)cc2)c1C,13.9

row,Compound,"hERG current change (%, negative = inhibition) at 1uM [%]"
1,CN(C)/C=C/C(=O)c1ccc([N+](=O)[O-])c(CS(=O)(=O)c2ccccc2)c1,-4.39
2,Cc1ccc(C2NC(=S)NC3=C2N2CCC3CC2)cc1 (stereo not drawn),11
3,Cc1ccc(S(=O)(=O)[N-]c2c(C)n(C)n(-c3ccccc3)c2=O)cc1.[Na+],16
4,COc1ccc(C(C(=O)NC(C)(C)C)N(Cc2ccccc2)C(=O)CCC(=O)Nc2cc(C)on2)cc1 (stereo not drawn),19
5,CCOc1ccc(C(=O)N/N=C/c2ccc(SC)cc2)cc1,10.5
6,CC(=O)N1CCC(=NNc2ccc(S(N)(=O)=O)cc2[N+](=O)[O-])CC1,2.66
7,CCn1cc(C(=O)O)c(=O)c2cc(F)c(N3CCN(S(=O)(=O)c4ccc5c(c4)OCCO5)CC3)cc21,10
8,COCCNC(=O)COc1cccc(Oc2ccccc2)c1,2.41
9,CCn1cc(Br)c(-c2nc3ccccc3c(=O)n2N)n1,1.49
10,COc1ccc(CCNC(=O)c2ccccc2-c2ccccc2C(=O)O)cc1OC,11.5
11,Cc1ccc(/C=C/C(=O)Nc2cccc3cccnc23)o1,-5.54
12,CC[N+](C)(CC)CC(O)COCC1COc2ccccc2O1.[I-] (stereo not drawn),5.58
13,Cc1nc2ccc(NC(=S)NC(C)C)cc2nc1C,3.13
14,CCCS(=O)(=O)C(=C1NCCO1)S(=O)(=O)CCC,4.32
15,CC(C)CC(NC(N)=O)C(=O)OCC(=O)N(Cc1ccccc1)Cc1ccccc1 (stereo not drawn),4.83
16,COc1cc2c(cc1OC)C[N+](C)(C)CC2.[I-],16.7
17,O=C1C=C(c2ccccc2)OC(c2ccccc2)O1 (stereo not drawn),3.33
18,CC(=O)c1c(C)[nH]c(C(=O)Nc2cccc3ccccc23)c1C,12
19,COc1cc(-c2nc3cnccn3c2Nc2ccccc2)ccc1O,10.4
20,COc1ccc2c(c1)Cc1sc(NC(=O)c3ccccc3)nc1-2,11.5
21,Cc1nc(N2CCCCCC2)c2ccccc2n1.Cl,-7.29
